B1: CPEB3 Ribozyme (parent)
chain: UAACAGGGGGCCACAGCAGAAGCGUUCACGUCGCAGCCCCUGUCAGAUUCUGGUGAAUCUGCGAAUUCUGCUGUAUAUCUC

From the RNAGym collection of RNA variant scans (doi:10.1093/nar/gkz1192) come the findings set out here.

Read counts are not given, so values of variants with three or more changes are uncertain.

Variants of B1 are the subject of the data set. Nature of the data set: self-cleavage, relative activity (ratio to wild type); higher = more cleavage; in vitro, sequencing. An outline of the steps: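 Libraries of CPEB3 self-cleaving ribozyme mutants came from rounds of error-prone PCR and carried barcodes, which DNA sequencing matched to variants. In vitro transcription used T7 RNA polymerase at 37°C for 5 hours, with a further 15 min in DNase I before EDTA stopped the reaction; the ribozymes cleaved during both steps. The RNA was reverse transcribed with template switching and sequenced on Illumina. Relative activity is the cleaved/total read fraction of a variant divided by that of the unmutated ribozyme, averaged over three batches with at least 5 reads.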
Turning to UAACAGGGGGCCACAGCAGAAGCGUUCGCGUCGCAGCCCCUGUCAGAUUCUGGUGAGUCUGCGAAUUCUGCUGCAUAUCUC, the self-cleavage is 0.76.
On to UAACAGGGGGCCACAGCAGAAGCGUUCGUGUCGCAGCCCCUGUCAGAUUCUGGUGAAUCUGCGUAUUCUGCUGUAUAUCUC, for which the self-cleavage was 0.31.
Consider UAACAGGGGGCCACAGCAGAAGCGUUCGUGUCGCAGCCCCUAGCAGAUUCUGGUGAAUCUGCGAAUUCUGCUGUAUAUCUC, for which the self-cleavage is 0.28.
Regarding UAACAGGGGGCCACAGCAGAAGCGUUCGAGUCGCAGCCCCUGUCAGAUUCCGGUGAAUCUGCGAAUUCUGCUGUAUAUCUC, the self-cleavage stood at 0.18.
Next, UAACAGGGGGCCACAGCAGAAGCGUUCGUGUCACAGCCCCUGUCAGAUUCUGGUGAAUCUGCGAAUUCUGCUGUAUAUCAC: 0.1; UAACAGGGGGCCACAGCAGAAGCGUUCGCGUAGCAGCCCCUGUCAGAUUCUGGUGAAUCUGCGAAUUCUGCUGUAUAUUUC: 0.1; UAACAGGGGGCCACAGCAGAAGCGUUCGUGUCGCAGCCCCUGUCAGAUUCUGAUGGAUCUGCGAAUUCUGCUGUAUAUCUC: 0.3.
As for UAACAGGGGGCCACAGCAGAAGCGUUCGCGUGGCAGCCCCUGUCAGAUUCUGGUGAAUCUGCGGAUUCUGCUGUAUAUCUC, the figure is 0.38; as for UAACAGGGGGCCACAGCAGAAGCGUUCGCGUUGCAGCCCCCGUCAGAUUCUGGUGAAUCCGCGAAUUCUGCUGUAUAUCUC, 0.07; as for UAACAGGGGGCCACAGCAGAAGCGUUCGUGUCGCAGCCCCUGUCAGAUUCAGGUGAGUCUGCGAAUUCUGCUGUAUAUCUC, 0.05.
For UAACAGGGGGCCACAGCAGAAGCGUUCGUGUCGCAGCCCCUGUCAGAUUCUGGUAAAUCUGCGGAUUCUGCUGUAUAUCUC, the self-cleavage was determined as 0.16.
As for UAACAGGGGGCCACAGCAGAAGCGUUCGCGUCGCAGCCCCUGUCAGAUUCUGGUGAAUCUGCGAAUUCUGCUGUGUAUCCC, the figure is 0.23.
Turning to UAACAGGGGGCCACAGCAGAAGCGUUCGCGUCGCAGCCCCUGUCAGAUUCUGGUGAAUCUGCGUAUUCUGCCGCGUAUCUC, the self-cleavage worked out at 0.13.
For UAACAGGGGGCCACAGCAGAAGCGUUCGUGUCGCAGCCCCUGUCAGGUUCUGGCGAAUCUGCGAAUUCUGCUGUAUAUCUC, the self-cleavage is 0.11.
As for UAACAGGGGGCCACAGCAGAAGCGUUCGCGUCGCAGCCCCUGUCAGAUUCUGGUGAAUCUGCGGAUUCUGCAGUAUAUCUC, the figure is 0.38; as for UAACAGGGGGCCACAGCAGAAGCGUUCGCGUCGCAGCCCCUGUCAGAUUCUGGUGAGUCUGCGAACACUGCUGUAUAUCUC, 0.13; as for UAACAGGGGGCCACAGCAGAAGCGUUCGCGUCGCAGCCCCUGUCAGAUUCUGGUGAAUCUGCGGAUUCAGCUGUAUAUCUC, 0.14.
For the variant UAACAGGGGGCCACAGCAGAAGCGUUCGUGUCGCAGACCCUGUCUGAUUCUGGUGAGUCUGCGUAUUCUGCUGUAUAUCUC, the self-cleavage came out at 0.08.
On to UAACAGGGGGCCACAGCAGAAGCGUUCGCGUCGCAGCCCCUGUCAGAUUCUGGUGAAUCUGCGAAUUCUGCUGUAUGGCUC, for which the self-cleavage was found to be 0.3.
In the case of UAACAGGGGGCCACAGCAGAAGCGUUCGCGUUGCAGCCCCUGUCAGACUCCGGUGUAUCUGCGAAUUCUGCUGUAUAUCUC, the self-cleavage was determined as 0.17.
Turning to UAACAGGGGGCCACAGCAGAAGCGUUCGGGUCGCAGCCCCUGUCAGAUUCUGGUGAGUCUGCGAAUUCUGCUGUAUAUCUC, the self-cleavage was found to be 0.31.
As for UAACAGGGGGCCACAGCAGAAGCGUUCGCGUUGCAGCCCCUGUCAGAUCCAGGUGAAUCUGCGAAUUCUGCUGUAUACCUC, the figure is 0.14.
Turning to UAACAGGGGGCCACAGCAGAAGCGUUCGAGUCGCAGCCCCUGUCAGAUUCUGGUGAAUCUGCGAAUUCUGCUGUGUAUCUC, the self-cleavage came to 0.25.
With UAACAGGGGGCCACAGCAGAAGCGUUCGCGUCGCAGCCCCUGUCAGAUUCUGGUGAAUCUGCGUAUUCUGCUGUGUAUCUC, the self-cleavage came out at 0.12.
Take UAACAGGGGGCCACAGCAGAAGCGUUCGUGUCGCAGCCCCUGUCAGAUCCUGGUGAAUCUGCGUAUUCUGCUGUAUAUCUC: the self-cleavage worked out at 0.04.
Next, UAACAGGGGGCCACAGCAGAAGCGUUCGCGUCGCAGCCCCUGUCAGAUUCUGGUGAGUCUGCGAAUUCGGCUGUAUAUCUC: 0.15; UAACAGGGGGCCACAGCAGAAGCGUUCGUGUCGCAGCCCCUGUCAGAUUCUGGUGAAUCUGCGAAUUCAGCUGUAUAUCUC: 0.13.
As for UAACAGGGGGCCACAGCAGAAGCGUUCGUGUCGCAGCCCCUGUCAGAUUCUGGUGAAUCUGCGAAUUCUGCUGUAUAUCAC, the figure is 0.58.
As to UAACAGGGGGCCACAGCAGAAGCGUUCGCGUCGCAGCCCCUGUCAGAUUCUGGUGAAUCUGCGAGUUCAGCUUUAUAUCUC, the self-cleavage came to 0.15.
Next, UAACAGGGGGCCACAGCAGAAGCGUUCGCGUCGCAGCCCCUGUCAGAUUCUGGUGAAUCUGCGGAUUCUGCUGUAUAUCUG: 0.5; UAACAGGGGGCCACAGCAGAAGCGUUCGCGUCGCAGCCCCUGUCAGAUUCUGGUGAAUCUGCGUGUUCUGCCGUAUAUCUC: 0.13.
As for UAACAGGGGGCCACAGCAGAAGCGUUCGUGUCGCAGCCCCUGUCAGAUUCUGGUGAAUCUGCGAAUUCUGCAGUAUAUCCC, the figure is 0.51; as for UAACAGGGGGCCACAGCAGAAGCGUUCGCGUCGCAGCCCCUGUCAGAUUCUGGUGAAUCUGCGGAUUCUGCAGUAUAUCAC, 0.26; as for UAACAGGGGGCCACAGCAGAAGCGUUCGCGUUGCUGCCCCUGUCAGAUUCUGGUGUAUCUGCGAAUUCUGCUGUAUAUCUC, 0.06.
